According to ChEMBL document CHEMBL5308541, “MAIP: An Open-Source Tool to Enrich High-Throughput Screening Output and Identify Novel, Druglike Molecules with Antimalarial Activity” (ACS Med Chem Lett, 2023):
In all, about 150,000 compounds went through this assay and about 540 (0.36%) showed an effect of 50% or more. The list shows a part of the results.

System: Plasmodium falciparum
Assay: Primary screen in NF54 nanoGlo assay, in single point, at 2uM, 72h; a lower Z score goes with more inhibition
Type: functional, Erythrocyte
Details: timepoint 72 hour

Row | SMILES | % Inhibition [%] | Z score
1 | Fc1cc(CNc2ncnc3[nH]ncc23)ccc1-n1ccnc1 | -2 | 0.35
2 | O=C(CC[C@H]1CCCN(Cc2ccc3ncccc3c2)C1)NCc1ccccc1F | -1 | 0.25
3 | c1nc(C2CC2)ncc1CCNC1CCN(C2CCCCC2)CC1 | -7 | 1.14
4 | COc1ccc(-c2[nH]c3nc(N)[nH]c(=O)c3c2-c2c(N)nc(N)[nH]c2=O)cc1F | -2 | 0.4
5 | OCc1ccc(CNCc2cc(O)c3cccc(Cl)c3n2)cc1 | -19 | 3.28
6 | CN1CCN(CCCNc2nccc(-c3ccccn3)n2)CC1 | -5 | 1.02
7 | NS(=O)(=O)c1cnc(NC[C@H](O)c2ccc(F)c(F)c2)s1 | -10 | 1.77
8 | c1nc2c(c(NCc3ccc4c(c3)OCCCO4)n1)CCNCC2 | -6 | 1.04
9 | CN(CCN1CCCCCC1)C(=O)c1cc2c(Cl)cccc2[nH]1 | -2 | 0.38
10 | CN1CCCN(CC(=O)N2CCCO[C@@H](CN3CCCCC3)C2)CC1 | 3 | -0.6
11 | CCCCN1CCOC[C@H]1C(=O)NCCN1CCN(Cc2ccccc2)CC1 | -9 | 1.56
12 | O=C(N[C@H]1CCCCNC1=O)c1ccc(N2CCC(NCc3cnn(-c4ccccc4)n3)CC2)cc1 | -4 | 0.77
13 | CNc1ccnc(NC[C@H]2CC[C@H](CO)CC2)n1 | -3 | 0.53
14 | c1cc(NC2CCN(Cc3ccncc3)CC2)cc(-c2cnco2)c1 | -11 | 1.88
15 | COc1ccnc(NC2CCN(C(=O)N[C@H]3CCc4[nH]ncc4C3)CC2)n1 | 6 | -1.28
16 | Cc1cc(-c2nc3cc4[nH]c(=O)[nH]c4cc3[nH]2)ccc1O | -2 | 0.37
17 | CC(=O)N(c1nc(CN2Cc3ccccc3OC(C)(C)C2)cs1)C1CC1 | -3 | 0.56
18 | c1cnc2cc(Oc3ccc4nccnc4c3)ccc2n1 | -7 | 1.23
19 | CN1CCN(CCCN[C@H]2CCCOc3ccc(Cl)cc32)CC1 | 7 | -1.2
20 | c1ccc(CCC23CN(Cc4ccccn4)CC2CN(Cc2ccns2)C3)cc1 (centres undefined) | 86 | -17.09
21 | CCCC1(CCC)NC(=O)N(C[C@H]2CCOC2)C1=O | 8 | -1.4

Row | SMILES | % Inhibition [%] | Z score
22 | CN1CCCC[C@@H]1CCNc1cc(NCCO)ncn1 | -6 | 1.19
23 | Cc1nc(NCc2ccccc2Cn2ccnc2)c2c(C)csc2n1 | 7 | -1.17
24 | CC(C)(C)OC(=O)N1CCN(CCCNc2nc(-c3ccncc3)nc3ccccc23)CC1 | 11 | -1.63
25 | CCOc1ccc(O[C@@H](C)c2nnc(-c3c(C)noc3C3CC3)o2)cc1 | -8 | 1.15
26 | Fc1cc2ncc(N3CCC4(CCNC4)CC3)nc2cc1F | -9 | 1.33
27 | c1ccc2[nH]c(N3CCC(c4c[nH]c5ccccc45)CC3)nc2c1 | 9 | -1.85
28 | Cn1ncc(C(F)(F)F)c1CN[C@H]1CCCc2c1[nH]c1ccc(Cl)cc21 | -15 | 2.6
29 | Cn1cc(CNc2nc3cc(F)ccc3n2C)c(-c2cccnc2)n1 | -4 | 0.78
30 | CN(C)CCN1CCN(c2ncnc3[nH]ccc23)CCC1=O | -6 | 1.08
31 | Fc1ccc2[nH]c(-c3cc4n(n3)CCCN(C/C=C/c3ccco3)C4)nc2c1 | 3 | -0.51
32 | Cc1cc(F)cc(NC(=O)c2cc3n(n2)CCN(C)S3(=O)=O)c1 | -2 | 0.47
33 | CN(Cc1ccoc1)Cc1cccc(-c2nc(-c3ccc(O)cc3)cc(=O)[nH]2)c1 | -6 | 0.97
34 | CCOC(=O)C[C@H](OC(=O)CCN1CCCC1=O)C1CC1 | -13 | 2.76
35 | CC(=O)c1c(C)nn([C@@H](C)CC(=O)N2CCC(c3ncc[nH]3)CC2)c1C | 1 | -0.2
36 | CC(C)C(=O)N1CCC[C@H](Nc2cc(N3CCC(O)CC3)ncn2)C1 | 9 | -1.97
37 | Cc1nc2cc(NC(=O)c3cc(-c4cccnc4)[nH]n3)ccc2n1CCCN(C)C | 6 | -1.02
38 | O=C(C1CCN(Cc2ccc3cn[nH]c3c2)CC1)N(Cc1ccccc1)C1CC1 | -1 | 0.21
39 | Cc1ccc(NCCCNCc2ccc(CO)o2)nc1 | -10 | 2.19
40 | O=C([C@@H]1CCCc2c1[nH]c1ccccc21)N1CCC(O)(CN2CCCC2)CC1 | -5 | 0.81
41 | OCCNc1cc(NCCN2CCC[C@H](CO)C2)ncn1 | -11 | 1.94
42 | Cn1c(=O)n(C)c2cc(CNc3nc(N)nc4c3CCNCC4)ccc21 | -4 | 0.71
